Measurements from PubChem BioAssay AID1768 (National Center for Advancing Translational Sciences (NCATS), 2009).
The campaign covered roughly 270,000 compounds. About 620 (0.23%) were called active. The shares of active, inactive and inconclusive entries below differ from those in the screen. Calls follow the shape of the dose curve; as a rule, active = well fitted inhibition curve with a large enough effect in the polarisation, with a control signal flat (not every such curve was filed as active); inconclusive = small, poorly fitted or top-dose-only effect, or effect the other way, or a change in a side signal; inactive = no such curve, though single readings can be large or run the other way; the % refers to the polarisation. Where the call is inconclusive, the potency comes from a doubtful curve fit. “Side channel” marks fits to a control or component signal instead of the main read-out.

target: Menin (Homo sapiens) (UniProt O00255); experiment: qHTS Assay for Inhibitors Targeting the Menin-MLL Interaction in MLL Related Leukemias: Competition With Texas Red Labeled MLL-derived Mutant Peptide; settings: fluorescence polarization; FP activity change, negative = inhibition: at 61.6 µM (top of the series); as to FP activity change, negative = inhibition: % of control where 0% means no effect
Chain of UniProt O00255 (O00255 whole entry, looked up): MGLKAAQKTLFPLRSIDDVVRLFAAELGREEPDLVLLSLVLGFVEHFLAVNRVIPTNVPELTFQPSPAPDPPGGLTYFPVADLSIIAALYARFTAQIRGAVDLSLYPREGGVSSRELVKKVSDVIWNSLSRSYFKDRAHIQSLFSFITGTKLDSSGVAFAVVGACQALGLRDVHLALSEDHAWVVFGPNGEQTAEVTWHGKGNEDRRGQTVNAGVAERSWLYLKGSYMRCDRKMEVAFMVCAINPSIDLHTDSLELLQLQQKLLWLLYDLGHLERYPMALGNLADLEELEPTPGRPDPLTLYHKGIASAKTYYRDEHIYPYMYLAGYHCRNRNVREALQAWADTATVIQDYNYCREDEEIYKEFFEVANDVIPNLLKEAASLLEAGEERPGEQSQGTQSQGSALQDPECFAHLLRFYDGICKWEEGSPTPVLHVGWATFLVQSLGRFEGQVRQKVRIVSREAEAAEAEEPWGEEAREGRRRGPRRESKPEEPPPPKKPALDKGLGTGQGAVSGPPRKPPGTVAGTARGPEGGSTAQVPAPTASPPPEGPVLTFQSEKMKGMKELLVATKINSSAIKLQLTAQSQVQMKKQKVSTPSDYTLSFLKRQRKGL
Potency is read from the fitted curve at half-maximal effect; tags tell the direction and shape of the fitted curve or compound fluorescence and quenching.

SMILES | Potency | FP activity change, negative = inhibition
Fc1ccccc1NC(=S)Nc1ccc(Br)cc1 | inconclusive: 20 µM [inhibitor, single point] | 
CCOc1ccc(N2CC(C(=O)NCCC3=CCCCC3)CC2=O)cc1 (stereo not drawn) | inconclusive: 20 µM [inhibitor, single point] | 
COc1cc2c(cc1OC)C1(Nc3c-2c(Cc2ccccc2)nn3-c2ccccc2)C(=O)Nc2ccccc21 (stereo not drawn) | inconclusive: 10 µM [quencher, side channel, partial curve] | 
Nc1nc(SCC(=O)c2ccc(Br)s2)n[nH]1 | inconclusive: 25.1 µM [quencher, side channel, single point] | 
Cc1ccc2c(c1)-c1ccccc1S(=O)(=O)N2 |  | inactive: -0.898%
c1ccc(CN2CCN(c3nc(NCc4ccco4)c4ccccc4n3)CC2)cc1 |  | inactive: -29.2%
O=C(Cn1c(/C=C/c2ccccc2)nc2ccccc21)Nc1ccc(F)cc1 | inconclusive: 11.2 µM [quencher, side channel, partial curve] | 
COC(=O)c1ccccc1NC(=O)CSc1nc2cccnc2n1C | inconclusive: 22.4 µM [inhibitor, single point] | 
O=C(Nc1nccs1)c1cc2c(s1)-c1ccccc1OC2 | inconclusive: 12.6 µM [quencher, side channel, partial curve] | 
COC(=O)c1c(C)oc2c1cc(NS(=O)(=O)c1ccc(C(=O)O)cc1)c1ccccc12 | inconclusive: 25.1 µM [quencher, side channel, single point] | 
CCNS(=O)(=O)c1ccc(NC(=O)Nc2ccc3c(c2)OCO3)cc1 | inconclusive: 20 µM [quencher, side channel, partial curve] | 
CC(=O)c1ccc(NC(=O)CSc2nnc(-c3ccco3)c(-c3ccco3)n2)cc1 | inconclusive: 15.8 µM [quencher, side channel, partial curve] | 
Cc1noc(C)c1-c1ccc2ncnc(NCc3ccc(Br)cc3)c2c1 |  | inactive: 44.7%
CC(=O)Nc1nnc(SCC(=O)c2ccc3c(c2)Cc2ccccc2-3)s1 | inconclusive: 28.2 µM [quencher, side channel, single point] | 
O=C(CN1C(=O)/C(=C\C=C\c2ccccc2)SC1=S)Nc1ccc(F)cc1 | inconclusive: 3.55 µM [quencher, side channel, full curve] | 
N=C1C(c2nc3ccccc3s2)=C(O)CN1c1ccccc1 | inconclusive: 22.4 µM [fluorescent, side channel, single point] | 
Cc1cc(SCc2cc(=O)[nH]c3ccccc23)nc2ccccc12 | inconclusive: 2.24 µM [fluorescent, side channel, full curve, poor fit] | 
CCc1cc2ccc(C)cc2nc1SCC(=O)Nc1c[nH]c(=O)[nH]c1=O | inconclusive: 35.5 µM [fluorescent, side channel, single point] | 
CCOc1cc(/C=C2\C(=N)N3N=C(S(C)(=O)=O)SC3=NC2=O)ccc1OCCOc1cccc(OC)c1 | inconclusive: 8.91 µM [quencher, partial curve] | 
O=C(O)CCCCCNC(=O)CSc1nnc(-c2ccco2)n1-c1ccccc1 | inconclusive: 22.4 µM [inhibitor, single point] | 

SMILES | Potency | FP activity change, negative = inhibition
CC[N+](CC)(CC)CC(=O)Nc1ccc(SC(F)F)cc1 |  | inactive: 11.3%
O=C(c1ccc2snnc2c1)N1CCSCC1 |  | inactive: -10.1%
O=C(Cc1coc2ccc3ccccc3c12)Nc1nnc(C2CC2)s1 | inconclusive: 39.8 µM [inhibitor, single point] | 
CCN(CC)C(=O)CSc1nc2c(sc(=S)n2-c2ccccc2)c(=O)n1-c1ccc(OC)c(OC)c1 | inconclusive: 2.82 µM [inhibitor, full curve] | 
CCn1c(O)c(/C=N/n2cnnc2)sc1=S | inconclusive: 25.1 µM [fluorescent, single point] | 
N#Cc1c(N)n(CCOC(=O)c2cccc([N+](=O)[O-])c2)c2nc3ccccc3nc12 | inconclusive: 20 µM [quencher, side channel, single point] | 
COc1ccc(NC(=O)COC(=O)c2ccc(O)cc2)c([N+](=O)[O-])c1 | inconclusive: 39.8 µM [quencher, side channel, partial curve, poor fit] | 
Cc1c(N=C2NC(=O)C(CC(=O)Nc3ccc(Cl)cc3)S2)c(=O)n(-c2ccccc2)n1C (stereo not drawn) | inconclusive: 31.6 µM [quencher, side channel, single point] | 
CCN(CCO)c1nc(SC)nc2c1sc1nc(-c3ccco3)c3c(c12)CCC3 | inconclusive: 7.08 µM [quencher, side channel, partial curve] | 
O=C(CSc1nnc(-c2c[nH]c3ccccc23)o1)N(Cc1ccccc1)c1ccc(F)cc1 | inconclusive: 3.98 µM [inhibitor, single point] | 
CCC(C)NC(=O)CSC1=Nc2ccccc2C2=NC(CC(=O)NCc3ccc(F)cc3)C(=O)N12 (stereo not drawn) |  | inactive: -12%
O=[N+]([O-])c1cc([N+](=O)[O-])c2c(=Nc3ccccc3)n(-c3ccccc3)n(O)c2c1 | inconclusive: 11.2 µM [quencher, side channel, partial curve] | 
COc1ccc(NC(=O)Nc2cc3oc4ccccc4c3cc2OC)cc1 | inconclusive: 7.94 µM [quencher, side channel, full curve] | 
COCCSc1nnc(NC(=O)c2cc(C(=O)OC)cc([N+](=O)[O-])c2)s1 | inconclusive: 22.4 µM [quencher, side channel, single point] | 
O=C(CSCc1ccccc1)Nc1cc([N+](=O)[O-])ccc1F | inconclusive: 15.8 µM [quencher, side channel, partial curve] | 
S=C(Nc1cccc(Cl)c1)NC1CCCCC1 | inconclusive: 20 µM [quencher, side channel, single point] | 
COc1ccc(OC)c(-c2csc(NC(=O)CSc3ccc([N+](=O)[O-])cc3)n2)c1 | inconclusive: 17.8 µM [quencher, side channel, partial curve] | 
COc1ccc(/C=N\NS(=O)(=O)c2ccc(Br)cc2)cc1COc1ccccc1[N+](=O)[O-] | inconclusive: 11.2 µM [quencher, side channel, partial curve] | 
CCOc1ncccc1C(=O)Nc1nnc(C(CC)CC)s1 | inconclusive: 7.94 µM [fluorescent, side channel, partial curve] | 
CC(C)CCN1C(Nc2ccccc2)=NC[C@@H]1Cc1ccccc1 |  | inactive: -16.3%

SMILES | Potency | FP activity change, negative = inhibition
O=C(Nc1sc2c(c1C(=O)O)CCCC2)c1cccs1 | inconclusive: 14.1 µM [quencher, side channel, partial curve] | 
CCn1cc(/C=N\NC(=O)Cc2ccc(Cl)cc2)cn1 |  | inactive: -2.8%
COCCNC(=O)Nc1ccc2nc(-c3cccs3)c(-c3cccs3)nc2c1 | inconclusive: 28.2 µM [quencher, side channel, partial curve] | 
O=C1NC(=O)c2cc(Nc3ccccc3)c(Nc3ccccc3)cc21 | inconclusive: 31.6 µM [quencher, side channel, single point] | 
Cc1cccc(N2CCN(C(=O)c3cccc(N4C(=O)C5C6C=CC(C6)C5C4=O)c3)CC2C)c1 (stereo not drawn) | inconclusive: 11.2 µM [fluorescent, side channel, partial curve] | 
CCC(C#CCN1CCCCC1)(CC)OCCC#N | inconclusive: 12.6 µM [inhibitor, partial curve] | 
Cc1ccc(-c2csc(NC(=O)COc3ccc(N(C)S(=O)(=O)c4ccc(C)cc4)cc3)n2)cc1 | inconclusive: 7.08 µM [inhibitor, partial curve] | 
COc1ccc(C2=NN(C(N)=S)C(c3ccco3)C2)cc1 (stereo not drawn) | inconclusive: 14.1 µM [quencher, side channel, partial curve] | 
C=CCN(CC=C)CCOc1ccccc1 | inconclusive: 39.8 µM [inhibitor, single point] | 
O=C(O)c1nn(CC(=O)N(C2CCCCC2)C2CCCCC2)c(=O)c2ccccc12 | inconclusive: 39.8 µM [inhibitor, single point] | 
COc1ccc(Cl)cc1NC(=S)NNC(=O)c1cccs1 | inconclusive: 35.5 µM [quencher, side channel, single point] | 
CC/C(=N\NC(=O)c1nnn(-c2nonc2N)c1-c1cccs1)c1ccccc1 | inconclusive: 39.8 µM [inhibitor, single point] | 
NS(=O)(=O)c1ccc(N=Nc2c(-c3ccccc3)[nH]n(-c3nc(-c4ccccc4)cs3)c2=O)cc1 | inconclusive: 2.51 µM [quencher, side channel, partial curve] | 
COCCCNC(=O)/C(C#N)=C/c1c(N2CCCCCC2)nc2ccccn2c1=O | inconclusive: 0.708 µM [inhibitor, full curve, poor fit] | 
CC(C)c1ccc(OCCCN2CCCC2)cc1 | inconclusive: 31.6 µM [inhibitor, partial curve] | 
COc1cccc(-c2csc(N3CCN(C(=S)Nc4ccccc4)CC3)n2)c1 | inconclusive: 3.16 µM [quencher, side channel, full curve] | 
Cc1c(C(C)(C)O)[nH]c2ccc(C(F)(F)F)cc12 | inconclusive: 17.8 µM [quencher, side channel, partial curve] | 
COc1ccccc1/C=C1\SC(=S)N(NS(=O)(=O)c2ccccc2)C1=O | inconclusive: 28.2 µM [quencher, side channel, single point] | 
